From publication PMC7819943, “Rice protein-binding microarrays: a tool to detect cis-acting elements near promoter regions in rice” come the findings set out here.

The list shows a part of the results.

The target in the experiment is T1, OsWOX13 (Oryza sativa, UniProt Q5QMM3 1-267).
T1 sequence: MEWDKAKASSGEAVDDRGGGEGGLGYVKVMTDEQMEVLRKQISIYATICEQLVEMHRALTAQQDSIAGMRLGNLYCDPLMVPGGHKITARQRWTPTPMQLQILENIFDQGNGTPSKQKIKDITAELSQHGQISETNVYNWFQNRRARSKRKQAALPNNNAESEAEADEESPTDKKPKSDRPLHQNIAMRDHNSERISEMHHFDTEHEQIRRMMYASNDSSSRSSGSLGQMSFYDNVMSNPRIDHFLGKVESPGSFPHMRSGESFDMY
In words: protein-binding microarray (RPBM); PBS, 2% BSA, 51.3 ng/ul salmon testes DNA, 50 uM zinc acetate, 200 nM TF, 25 C, 1 h; high values mean tight binding. Particulars: protein: recombinant; tags: N-terminal polyhistidine and DsRed monomer fusion (pET32a); label: CyDye5-dUTP incorporated in the synthesized complementary strand; 3' TTTTT single-stranded linker to array surface; dsDNA, one strand shown. A digest of the protocol:
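For the binding signal, per-feature fluorescence intensity was read in arbitrary units on an Axon 4000B scanner. Before scanning, a 2% BSA-blocked custom Agilent array made double-stranded with Cy5-dUTP was washed after 1 h at 25 °C with 200 nM protein and 50 µM zinc acetate. The proteins were Ni–NTA-purified transcription factors with N-terminal polyhistidine and DsRed fusions, expressed in E. coli BL21-CodonPlus.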
Take “TATGAATAATTGAAAGAGAGTGACTGGAGATGGCAAGAGTCGGAGTCACCTAGTGCAG”: the binding signal was 28200 fluorescence intensity (a.u.).

Take “GATAATAGAATAGCTTAATAAAACAATGTACTTGTTGCAGCGGAGTCACCTAGTGCAG”: the binding signal is 7950 fluorescence intensity (a.u.).

For the sequence “TGACCATGATTGACATTTCTATTTGCAAGAGCTCTCACTTCGGAGTCACCTAGTGCAG”, the binding signal is 34700 fluorescence intensity (a.u.).

“CATACAAGTCAATCAGCATCCATTTTGGCTGGTAGGACCTCGGAGTCACCTAGTGCAG”: the binding signal is 6900 fluorescence intensity (a.u.).

In the case of “TGTAGATTGAAAATATACGATTTTAGGGCCTAAATTTTATCGGAGTCACCTAGTGCAG”, the binding signal was 13300 fluorescence intensity (a.u.).

“TAAAATTCAAATTTTATATAGTTCAATCAAACTCGGATGGCGGAGTCACCTAGTGCAG”: the binding signal is 6650 fluorescence intensity (a.u.).

As for “GAATGTTATGTAATTGGGTCGGATTGGTATGCATATTGAGCGGAGTCACCTAGTGCAG”, the binding signal was 15000 fluorescence intensity (a.u.).

As for “ATGTTTTACTAATTATGATCTTATTATTGTAGCAACTATACGGAGTCACCTAGTGCAG”, the binding signal was 3890 fluorescence intensity (a.u.).

As for “TATAACTAAAATTACATTTGTAAATTTAGTTAATATGACACGGAGTCACCTAGTGCAG”, the binding signal was 19400 fluorescence intensity (a.u.).

As to “ATCCAATCTAATAGTTTATCAATAGTTATATAATACACCACGGAGTCACCTAGTGCAG”, the binding signal was 4780 fluorescence intensity (a.u.).

On to “ACGAATTGAACAATCAATTCACCCGGAGAGGTACGTCTGCCGGAGTCACCTAGTGCAG”, for which the binding signal is 27000 fluorescence intensity (a.u.).

For the sequence “TACTGAGATGGATAGATTAGAGAAACAACTCTGTTGTCTGCGGAGTCACCTAGTGCAG”, the binding signal was 4360 fluorescence intensity (a.u.).

As to “ACAGTAATCAGTCAGATGGAAAAGGTATACCTGAGGTTCCCGGAGTCACCTAGTGCAG”, the binding signal was 4150 fluorescence intensity (a.u.).

Turning to “GTTAGAATTGAATGAAAGAGGGAAGATGAACAGTTAGGATCGGAGTCACCTAGTGCAG”, the binding signal was 4820 fluorescence intensity (a.u.).

For “AGATAAATTAGGTGCTATTAAAGTGAAGCGTGAACTTGCACGGAGTCACCTAGTGCAG”, the binding signal is 10800 fluorescence intensity (a.u.).

Take “ATTGATTTGTGCAGTCACCCGGCCCACAGGCCACAGCTACCGGAGTCACCTAGTGCAG”: the binding signal is 22900 fluorescence intensity (a.u.).

For the sequence “AGAGACTGGTGATGGACTTTACTCTTTTCTTCTCCAACACCGGAGTCACCTAGTGCAG”, the binding signal was 6590 fluorescence intensity (a.u.).

Turning to “GTGAAATTGCCAACTTCATGTTAAATCTTGCATATGGATTCGGAGTCACCTAGTGCAG”, the binding signal was 3600 fluorescence intensity (a.u.).

As for “GTCGATTGAACAAACAGATATTGTCCGCTCTCTTTACACACGGAGTCACCTAGTGCAG”, the binding signal was 19700 fluorescence intensity (a.u.).

For “AGTTAAATTAAGTTAGTAATTAACACAAGCCCTTAATGTGCGGAGTCACCTAGTGCAG”, the binding signal is 22300 fluorescence intensity (a.u.).

For “GTAGAGTGATGATTGGAAATGTGTTTACTTTGAATTTTGACGGAGTCACCTAGTGCAG”, the binding signal was 26600 fluorescence intensity (a.u.).

As for “ACCATGATCGAAATATAATTAGCTTACTATGATACCGATGCGGAGTCACCTAGTGCAG”, the binding signal is 16000 fluorescence intensity (a.u.).

As to “CATGTAATTTTAAACCTTTAGATCTATTACAAGATTTGTTCGGAGTCACCTAGTGCAG”, the binding signal was 6690 fluorescence intensity (a.u.).

With “AGAACTATAGATCACCAATCAGTGACAAACAAAATTTCCCCGGAGTCACCTAGTGCAG”, the binding signal was 10300 fluorescence intensity (a.u.).

“CCATAAATTGGAGGACATAATGTGAACGTTTTCCTCCAAACGGAGTCACCTAGTGCAG”: the binding signal was 36700 fluorescence intensity (a.u.).

With “GAATGATTTAGAATGAATTATGTTGCTGTGAATGATTTAGCGGAGTCACCTAGTGCAG”, the binding signal is 20000 fluorescence intensity (a.u.).

Regarding “CGTCAAATCATTCCAATTTCAATCAAACTTCTAATTTTAGCGGAGTCACCTAGTGCAG”, the binding signal was 10600 fluorescence intensity (a.u.).

For the sequence “TAAATATACTTATAATTTGACAAATCACTAAGTCATAATTCGGAGTCACCTAGTGCAG”, the binding signal was 7660 fluorescence intensity (a.u.).

Consider “TTCTTCCTTATTATCAATTTAAATTTGAATTTAGATGAAACGGAGTCACCTAGTGCAG”, for which the binding signal was 11400 fluorescence intensity (a.u.).

For “GGCATGGTGATTTGGTACTAATGCTAAATCTTGTTTGTTGCGGAGTCACCTAGTGCAG”, the binding signal is 4910 fluorescence intensity (a.u.).

In the case of “GCGTCATAACTCATAAATTATGAAATGTGAAATGGTGGAACGGAGTCACCTAGTGCAG”, the binding signal is 6890 fluorescence intensity (a.u.).

On to “GTTAAAATGTTAATTAATCGTGTCAATCGAGTAAACAACCCGGAGTCACCTAGTGCAG”, for which the binding signal is 19900 fluorescence intensity (a.u.).

For the sequence “CGATGATTGTGCTAGTATACATGTGTTGACGATGTATTGTCGGAGTCACCTAGTGCAG”, the binding signal is 35500 fluorescence intensity (a.u.).

Consider “TTCTTGATTCCTTGATTATTGCCTTATTTCAGTGTGTCGCCGGAGTCACCTAGTGCAG”, for which the binding signal was 31200 fluorescence intensity (a.u.).

Take “GCAGCTGGGACTCCGAGAGTAGCAGCCTAGCAGGAACACGCGGAGTCACCTAGTGCAG”: the binding signal was 19300 fluorescence intensity (a.u.).

On to “CGTATTAATTAAGGCCTGTTGGGTTTAGAGGAATTTCGCGCGGAGTCACCTAGTGCAG”, for which the binding signal was 15100 fluorescence intensity (a.u.).

On to “CTGATTAGCATGCAGGATAGGAACTGATCTGTACTTGTCGCGGAGTCACCTAGTGCAG”, for which the binding signal is 22300 fluorescence intensity (a.u.).

Turning to “CCGAAATTTCACAAATTTCGTTTCTTTCAGCCACCACCGTCGGAGTCACCTAGTGCAG”, the binding signal is 14300 fluorescence intensity (a.u.).

As for “CCCTGATTTGGTTACTTCACTTCAATTATGGTAGTAGGGCCGGAGTCACCTAGTGCAG”, the binding signal was 36200 fluorescence intensity (a.u.).

Regarding “GCACCGGATTGGCTCCCTCTCCCGCATCACGCTACTGCCACGGAGTCACCTAGTGCAG”, the binding signal is 3220 fluorescence intensity (a.u.).

Regarding “GAGTTAGCCATGGCCTGTCAATTACTGGAACTCTGTTGTACGGAGTCACCTAGTGCAG”, the binding signal was 4480 fluorescence intensity (a.u.).

Regarding “CTTCATTAGTGATTAGTTGAAATGTAGATCAGAATTACCTCGGAGTCACCTAGTGCAG”, the binding signal was 8550 fluorescence intensity (a.u.).
